84 variants from the RNAGym collection of RNA variant scans (doi:10.1093/nar/gkz1192) can be followed below.

B1: CPEB3 Ribozyme (parent)
chain: UAACAGGGGGCCACAGCAGAAGCGUUCACGUCGCAGCCCCUGUCAGAUUCUGGUGAAUCUGCGAAUUCUGCUGUAUAUCUC

The source gives no read counts; variants with many changes may rest on few reads.

Variants of B1 are the subject of this data set. Briefly: self-cleavage, relative activity (ratio to wild type); higher = more cleavage; in vitro, sequencing. The method in brief: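 Barcoded CPEB3 ribozyme mutants, produced by rounds of error-prone PCR, self-cleaved while being transcribed with T7 RNA polymerase for 5 hours at 37°C and during a subsequent 15 min DNase I step before EDTA was added. Sequencing of template-switched cDNA on Illumina gave cleaved and total reads, and DNA sequencing assigned barcodes to variants. Each variant's relative activity is its cleaved/total read fraction divided by the unmutated ribozyme's fraction, averaged across three batches. A variant needed a minimum of 5 reads.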
As to A20U U26C C40G U49C U69A C81G, the self-cleavage was found to be 0.05.

For A21G A47G G53C A56G U72C, the self-cleavage came out at 0.15.

Regarding A21G A45U U54G, the self-cleavage stood at 0.22.

With A20U U41G A56G U58C U80A, the self-cleavage came out at 0.09.

Consider A21G A45G U67A, for which the self-cleavage stood at 0.19.

Turning to A21G A64G U76A, the self-cleavage turned out to be 0.38.

Consider A21G C27A A47G G52A, for which the self-cleavage was 0.33.

On to A21C U26C A45U U69C U72C A77U U78C, for which the self-cleavage worked out at 0.05.

On to A21G A28U A35G, for which the self-cleavage was determined as 1.04.

For the variant A20U U31A U41C G55A G73A, the self-cleavage was 0.09.

Consider A21G A28G U48C A56G, for which the self-cleavage was found to be 0.21.

Take A21G A28U A35G U49A: the self-cleavage turned out to be 1.01.

Turning to A21G C29U C32A U43C A45G A64G U78C, the self-cleavage was 0.03.

Regarding A20U U58C A65G A77U, the self-cleavage came out at 0.16.

As for A21G A28C C62U U78C, the self-cleavage came to 0.07.

A20U U54A U72A: the self-cleavage stood at 0.13.

Consider A21G A47G A56U A57C C62U, for which the self-cleavage was determined as 0.08.

As for A21G A35U U49A U51A A77U, the self-cleavage is 0.06.

With A20U U58C A75G, the self-cleavage turned out to be 0.17.

Take A21G A28C A47G C62U: the self-cleavage came out at 0.12.

For A21G A28G U58C U80A, the self-cleavage is 0.45.

A20U U60C G70C: the self-cleavage amounted to 0.13.

As for A20U U51C C59A U74C U80G, the self-cleavage turned out to be 0.13.

For A21G A35U U43C A45G G52A C62G, the self-cleavage came to 0.27.

Consider A21G A45U C50A U80C, for which the self-cleavage was 0.15.

With A20U U43C A56G C59U U60A U78A, the self-cleavage was found to be 0.08.

As to A21G A35G U48C C71G U74C, the self-cleavage was 0.12.

In the case of A20U U43C U58A, the self-cleavage came to 0.13.

For A21G A45C G63C A64C, the self-cleavage stood at 0.16.

Regarding A21C G30A U41C, the self-cleavage is 0.23.

For the variant A20U U31C G42A A45G, the self-cleavage came out at 0.14.

A20U U51A G63A A64G U69C: the self-cleavage was determined as 0.13.

Consider A21G A45G G61A U76C, for which the self-cleavage was found to be 0.44.

Take A21G A28G U67C U74C: the self-cleavage amounted to 0.13.

A21G A56U U72C: the self-cleavage was 0.18.

Turning to A21G A56U U72A, the self-cleavage is 0.09.

Take A21C C40U A65G U74A: the self-cleavage was found to be 0.09.

With A21G A56U U72A U76A, the self-cleavage worked out at 0.43.

With A21G A28G U41G U67A, the self-cleavage turned out to be 0.29.

Consider A21G C29U U41G A65G U76C A77C, for which the self-cleavage stood at 0.04.

For A20U U51C U58C, the self-cleavage was determined as 0.12.

Regarding A21G A35G U67A, the self-cleavage was determined as 0.92.

Turning to A21G A47G U58C C62U, the self-cleavage is 0.1.

In the case of A20U U26C G63A, the self-cleavage was found to be 0.17.

For the variant A21G A47U A75U, the self-cleavage came to 0.44.

Turning to A21G A45U U49A, the self-cleavage came out at 0.17.

For A21G A45C G61C, the self-cleavage amounted to 0.12.

Regarding A20U U31G U41A A57G, the self-cleavage was 0.13.

In the case of A21G C23U U41A A56G, the self-cleavage is 0.11.

As to A21G A35G U67A U72A, the self-cleavage was 0.39.

In the case of A21G A35U U41C U43C A45U, the self-cleavage was 0.19.

Consider A21G A35U U41A, for which the self-cleavage came out at 0.25.

For the variant A21G A28G U31A U60G U80A, the self-cleavage was determined as 0.03.

With A21G A35G A57G U60C U80C, the self-cleavage turned out to be 0.38.

Regarding A20U U31G U41C A64G U74C U80C, the self-cleavage is 0.22.

In the case of A21G A35G G52A, the self-cleavage came to 1.13.

For the variant A21C A57G U60C U72A, the self-cleavage was 0.19.

With A20U U43C A45U U48C G73U U78C, the self-cleavage was 0.2.

In the case of A21C U26A G33A G36U U41C, the self-cleavage was 0.06.

As for A20U U67A U69G, the self-cleavage came to 0.52.

Turning to A20U U26A A45U U67C, the self-cleavage came to 0.1.

As for A20U U51A U74C, the self-cleavage stood at 0.44.

On to A21C A28U A47C U60C U74G, for which the self-cleavage was determined as 0.06.

For the variant A20U U51A A77U U80A, the self-cleavage was found to be 0.33.

For A21G A35G C68U, the self-cleavage worked out at 0.95.

As for A20U U26A U58C U72C, the self-cleavage was determined as 0.11.

Consider A20U U41A U48C A56G A57G A64U U80C, for which the self-cleavage turned out to be 0.1.

A20U U31A U41C G55A A65G U72A G73A: the self-cleavage was 0.09.

Consider A21G A57G U80C, for which the self-cleavage stood at 0.75.

With A20U U48C C71A U80C, the self-cleavage turned out to be 0.08.

As for A20U U41C A57C, the self-cleavage was 0.1.

For A20U U41C A57G, the self-cleavage was 0.2.

Take A21G A45C G53C: the self-cleavage is 0.1.

Regarding A20U U26C U43A U60C, the self-cleavage amounted to 0.18.

For A21C U51G A75G, the self-cleavage was 0.07.

With A21G A45C U60A U69C, the self-cleavage is 0.12.

Consider A20U U31G A45C U67C, for which the self-cleavage worked out at 0.03.

For A20U U54G U60C U67C, the self-cleavage stood at 0.12.

Regarding A21G A45C A47G A56U G63A U72C, the self-cleavage was 0.05.

In the case of A20U U41A U78C, the self-cleavage is 0.16.

As for A21G C23U U26C U69C, the self-cleavage came to 0.18.

For the variant A21C U25A U49C A64G, the self-cleavage turned out to be 0.05.

A21G A28G G55U U72C: the self-cleavage stood at 0.18.

Turning to A20U U48A U74C, the self-cleavage came out at 0.34.
